Data on one molecule can be found in publication doi:10.1101/2025.07.22.666130 (bioRxiv, 2025).

In the experiment the target is T1, 15N-labeled RAD52-CTD (217-418), GST tag cleaved (human, UniProt P43351 217-418, uniformly 15N labeled).
T1 sequence: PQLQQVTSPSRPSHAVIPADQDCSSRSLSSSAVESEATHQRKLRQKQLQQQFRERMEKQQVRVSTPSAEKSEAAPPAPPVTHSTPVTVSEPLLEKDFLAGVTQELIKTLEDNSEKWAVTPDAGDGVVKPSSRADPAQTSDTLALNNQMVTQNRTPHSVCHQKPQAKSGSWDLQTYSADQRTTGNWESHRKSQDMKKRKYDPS
Description: NMR titration.

B1: Human RPA32C ([…]) (domain or fragment)
chain: not shown
In the case of B1, the binding result was “binds”.
